Like-named read-outs stand apart in the source and are kept apart here.
Assays:
[1] = biological target: T1, human D3 receptor S192A mutant (Homo sapiens, UniProt P35462, S192A)
WT human D3 receptor = WT human D3 receptor (Homo sapiens, UniProt P35462); experiment: biochemical
[2] = biological target: T1, human D3 receptor S192A mutant; experiment: biochemical

T1 sequence (P35462 whole entry): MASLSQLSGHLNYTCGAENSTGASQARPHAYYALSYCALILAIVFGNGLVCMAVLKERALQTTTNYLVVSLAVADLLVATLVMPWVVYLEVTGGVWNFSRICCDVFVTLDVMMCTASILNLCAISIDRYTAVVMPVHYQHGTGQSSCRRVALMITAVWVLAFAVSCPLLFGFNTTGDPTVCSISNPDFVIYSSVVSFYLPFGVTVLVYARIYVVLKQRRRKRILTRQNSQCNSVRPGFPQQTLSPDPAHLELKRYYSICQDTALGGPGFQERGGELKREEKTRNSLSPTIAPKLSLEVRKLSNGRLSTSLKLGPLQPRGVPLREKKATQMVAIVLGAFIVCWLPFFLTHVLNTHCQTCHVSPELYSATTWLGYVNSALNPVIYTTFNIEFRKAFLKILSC

Structure (SMILES) | Loss of binding activity (increase of Ki) at S192A compared with WT ([1]; S192A versus WT hD3) | Ki (WT human D3 receptor) | Ki [2] | Loss of binding activity (increase of Ki) at S192A compared with WT [1]
CCCN(CCC)C1CCc2c(O)cccc2C1 (stereo not drawn) [5-OH-DPAT (D323), 5-OH-DPAT, reference compound] | 18 fold |  |  | 
CCCN(CCN1CCN(c2ccc(-c3ccccc3)cc2)CC1)[C@H]1CCc2nc(N)sc2C1 [D264, (S)-N 6-(2-(4-([1,1′-biphenyl]-4-yl)piperazin-1-yl)ethyl)-N 6-propyl-4,5,6,7-tetrahydrobenzo[d]thiazole-2,6-diamine] |  | 5.81 ± 1.22 nM | 15.5 ± 2 nM | 2 fold
CCCN(CCN1CCN(c2ccccc2)CC1)[C@@H]1CCc2ccc(O)cc2C1 [D315, (R )-7-((2-(4-phenylpiperazin-1-yl)ethyl)(propyl)amino)-5,6,7,8-tetrahydronaphthalen-2-ol] |  | 0.503 ± 0.082 nM | 3.16 ± 0.55 nM | 
